Results: US20230340058A1

Molecular target: human RXFP1, full-length (human), Q9HBX9
Experiment: cell-based or functional assay

human RXFP1, full-length (human), Q9HBX9, sequence (Q9HBX9 whole entry): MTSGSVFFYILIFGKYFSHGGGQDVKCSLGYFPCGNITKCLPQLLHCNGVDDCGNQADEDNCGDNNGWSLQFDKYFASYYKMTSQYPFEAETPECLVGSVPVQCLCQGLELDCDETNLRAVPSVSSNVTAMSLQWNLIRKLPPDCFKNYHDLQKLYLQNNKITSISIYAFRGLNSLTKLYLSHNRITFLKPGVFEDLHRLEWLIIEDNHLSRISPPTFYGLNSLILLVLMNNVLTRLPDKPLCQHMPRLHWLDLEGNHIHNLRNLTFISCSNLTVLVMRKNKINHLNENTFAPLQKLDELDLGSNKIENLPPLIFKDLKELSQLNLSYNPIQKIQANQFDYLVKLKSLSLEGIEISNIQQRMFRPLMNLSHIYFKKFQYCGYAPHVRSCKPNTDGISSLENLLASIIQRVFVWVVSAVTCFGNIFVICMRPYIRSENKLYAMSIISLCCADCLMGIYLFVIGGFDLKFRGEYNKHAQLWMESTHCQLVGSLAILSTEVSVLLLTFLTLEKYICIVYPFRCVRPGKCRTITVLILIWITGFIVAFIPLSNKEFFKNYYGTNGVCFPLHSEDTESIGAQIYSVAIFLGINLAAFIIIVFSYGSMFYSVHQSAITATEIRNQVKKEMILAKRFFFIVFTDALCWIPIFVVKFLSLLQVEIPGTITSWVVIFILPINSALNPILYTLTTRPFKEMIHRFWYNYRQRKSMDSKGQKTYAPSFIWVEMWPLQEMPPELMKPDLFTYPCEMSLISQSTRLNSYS

Potency Assay EC50 (nM), transient hRXFP1 cAMP assay [nM] | EC50 in nM (cAMP Response in RXFP1 Transfected HEK293 Cells) [nM] | pEC50 (cAMP Response in RXFP1 Transfected HEK293 Cells) | Binder
0.3 |  |  | Prior fusion (SEQ ID NO: 224) (Fc fusion) [human IgG1 Fc skipped]GGGGSGGGGSGGGGSQLYSALANKCCHVGCTKRSLARFCGGGGSGGGGSGGGGSSWMEEVIKLCGRELVRAQIAICGMSTWS
 | 0.42 | 9.37 | SEQ ID NO: 191 (Fc fusion) [human IgG1 Fc with changes skipped]GGSDSWKEEVIKLCGRELVRAQIAICGKSTASDAAGANANAGARQLYSALANKCCHVGCTKRSLAQFC
 | 1.46 | 8.84 | SEQ ID NO: 192 (Fc fusion) [human IgG1 Fc with changes skipped]GGSDSWKEEVIKLCGRELVRAQIAICGKSTASDAAGANANAGARQLYSALANKCCHVGCTKRSLAEFC
 | 2.41 | 8.62 | SEQ ID NO: 55 (Fc fusion) [human IgG1 Fc with changes skipped]GGSDSWMEEVIKLCGRELVRAQIAICGKSTGGGEGGGEGGGEGRQLYSALANKCCHVGCTKRSLARFC
 | 1.9 | 8.72 | SEQ ID NO: 56 (Fc fusion) [human IgG1 Fc with changes skipped]GGSDSWQEEVIKLCGRELVRAQIAICGKSTGGGEGGGEGGGEGRQLYSALANKCCHVGCTKRSLARFC
 | 2.17 | 8.66 | SEQ ID NO: 53 (Fc fusion) [human IgG1 Fc with changes skipped]GGSDSWKEEVIKLCGRELVRAQIAICGKSTGGGEGGGEGGGEGRQLYSALANKCCHVGCTKRSLARFC
 | 7.87 | 8.1 | SEQ ID NO: 54 (Fc fusion) [human IgG1 Fc with changes skipped]GGSDSWKEEVIKLCGRELVRAQIAICGKSTGGGEGGGEGGGEGGGQLYSALANKCCHVGCTKRSLARFC
 | 17.7 | 7.75 | SEQ ID NO: 59 (Fc fusion) [human IgG1 Fc with changes skipped]GGSDSWQEEVIKLCGRELVRAQIAICGKSTGGGEGGGEGGGEGGGQLYSALANKCCHVGCTKRSLARFC
 | 14.7 | 7.83 | SEQ ID NO: 58 (Fc fusion) [human IgG1 Fc with changes skipped]GGSDSWMEEVIKLCGRELVRAQIAICGKSTGGGEGGGEGGGEGGGQLYSALANKCCHVGCTKRSLARFC
